# Measured values reported in PMC12136788.
# The other results are listed elsewhere or left out.
# T1: UNK ZnF1-3 (human, UniProt Q9C0B0 31-174)
# T1 sequence: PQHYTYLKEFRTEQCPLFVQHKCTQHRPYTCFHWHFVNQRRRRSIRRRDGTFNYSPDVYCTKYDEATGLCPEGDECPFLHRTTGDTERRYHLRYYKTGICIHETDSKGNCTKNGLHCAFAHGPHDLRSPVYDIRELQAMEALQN
# B1: chr12:48362563:48362564:+_ENSG00000134291_ENST00000256686|hu_hu|hu_hu_hu_mus_False|28_98 (ssRNA)
# RNA: GGGAGUUCUACAGUCCGACGAUCUCCGUCAAGCCCUUCAAGCCCCACUUGCGGGGGAAACUGUAAUCACUUUGUAUGGGGAAGGAAAAGAAACGCCAAAAACUUUCUUUCUUUCUUGGGUGGGGUGAGGCGGGAGGGGGAGGUCAACAGAGGAUUGAGCAUCA
# B2: chr3:121486967:121486968:-_ENSMUSG00000028127_ENSMUST00000029770|mus_hu|FALSE|FALSE (ssRNA)
# RNA: GGGAGUUCUACAGUCCGACGAUCUCCAAUUGCACUCGUUAACUUAAAGAUAUACAAAACUAUGUCUAAAAAUGGCUUACUAAGAUUUGAAUACAGAUCGACUACACUGUUACAAAAUUUUUCUACAUCUUGUGUAAGCAGCUGCAACAGAGGAUUGAGCAUCA
# B3: 152509328_152509448_733_3pUTR_ENSMUSG00000039037_ENSMUST00000044278|mouse|control|control (ssRNA)
# RNA: GGGAGUUCUACAGUCCGACGAUCUAGGUUGUUGUACGCCUGGCCCUUGCCAUCCCGGCGCAUGUAGCUGCUGGGGCCCCAGAAGAUGAACACGGUGCCCUGGCUCACAUUGAGCAGGUCAUGGCGGUUGCGGAGGAUCCUCUGCAACAGAGGAUUGAGCAUCA
# B4: chrX:69798090:69798091:-_ENSMUSG00000031343_ENSMUST00000055966|mus_mus|motif|central (ssRNA)
# RNA: GGGAGUUCUACAGUCCGACGAUCAAGUCCCCAGGUUCUUGUCGUCUUGAUUCCCCUUGGCUAGUGGUUCCAGGGAGAAUACGGAUCAGGAGAAGAAGUACAACUCUGGUCACAUAAAAGUGCCACAUUUGUGUGAUUAUCAUCCAACAGAGGAUUGAGCAUCA
# B5: chr2:5814250:5814251:-_ENSMUSG00000025816_ENSMUST00000102981|mus_hu|mus_mus_mus_hu_True|38_58 (ssRNA)
# RNA: GGGAGUUCUACAGUCCGACGAUCUUCCUUUCCGGUUUCUGAAUUUCUGGUAGAACUGCACAGAAUGGUUUGAUAACUUCUAAAAACUUGAUGCCCAUGGCGGCGGCUGGGGAGGCCCAGGGGGAAACCGCGGCCUCGGCGCUGCAACAGAGGAUUGAGCAUCA
# B6: 23766683_23767305_2165_CDS_ENSMUSG00000020273_ENSMUST00000020513|mouse|control|control (ssRNA)
# RNA: GGGAGUUCUACAGUCCGACGAUCAAGUCGAAUGAACUUUUCUAUGUCUUUCAGCCUCUUAGAAGUCCCAUCUGUAGGUGGCGAAUGGGAUCUUUUGGGUGUAACAUUCUUAGUAAUAUUUGAUAUCCCAUUUAGAUGUGGUUGCAACAGAGGAUUGAGCAUCA
# B7: chrX:45560084:45560085:-_ENSMUSG00000036985_ENSMUST00000037960|mus_mus|motif|central (ssRNA)
# RNA: GGGAGUUCUACAGUCCGACGAUCGGGACUACUCGAGAGAAGAUGCAGAGGCUGAGGUCAGCUUUAAAAUCAGGUCGUCGGCGGGUGUUGCCACUGGGUCAAACAUUAUCAAGAGCCCUGAACAAGGGACACUGAACUCGGCCGCAACAGAGGAUUGAGCAUCA
# B8: chr2:202488911:202488912:-_ENSG00000155755_ENST00000286196|hu_mus|hu_hu_hu_mus_False|8_68 (ssRNA)
# RNA: GGGAGUUCUACAGUCCGACGAUCAUUGAAACAUUUUUCAUAAUCUCCAGUAGCAUUUCAGCAUUAUUAAUCAAAAACUCAAUUGUAAAUACAUGUAUCUUAUAAAAAUACACUUAAAAACACGAGUAAAAAUGGGAGGCGCCACAACAGAGGAUUGAGCAUCA
# B9: chr1:154963231:154963232:+_ENSMUSG00000042751_ENSMUST00000043313|mus_mus|FALSE|FALSE (ssRNA)
# RNA: GGGAGUUCUACAGUCCGACGAUCGGCUCUGCCUUCUUUCCUGGAUGUGGCCCUCCGCACUUACGAGUGCUGAGACUGGCUAUAGUGUCCUAUCAGAAGGGAAGUAAACCACAGGAGAGCAUCAAGACUACAAACAAACAAACACAACAGAGGAUUGAGCAUCA
# B10: 31412669_31414811_1497_CDS_ENSMUSG00000039100_ENSMUST00000090227|mouse|control|control (ssRNA)
# RNA: GGGAGUUCUACAGUCCGACGAUCUCGAAGUACCUCUCUCAGUAACAGGAUGAAGGAGGCAAAGUAGAACACAUACACCAUUCCCACCAACCAGUGCAGAAACAUCGUGGUCCCUGGAGCUGACUGAAAGCUCAGCUCUCGAUCCAACAGAGGAUUGAGCAUCA
# B11: 39650104_39650224_1318_3pUTR_ENSG00000100941_ENST00000216832|human|control|control (ssRNA)
# RNA: GGGAGUUCUACAGUCCGACGAUCUUUAUCUGGCUCAAUUUCAAAUUCCAUUUCUGGUUCCAAUUCUUUGCUAGCUUCAUUUUCUGAAGGUUCUACACUUUCAACUCGAUUAGUUUCCAUUACCUCCUGGUCAGCAAUUACAUGCAACAGAGGAUUGAGCAUCA
# B12: chr10:79632565:79632566:+_ENSMUSG00000045193_ENSMUST00000105365|mus_mus|FALSE|FALSE (ssRNA)
# RNA: GGGAGUUCUACAGUCCGACGAUCGCGCCUGCUCGUUGGUGUCGAAGCUGAGUCCUCCCACGAAAAGCUUGCCUUCAUCUGAUGCCAUGGCAGCCGCUGAGUCGGGCAGGUCCCUGACGCGAGCGGGAAGACAGCGCGCCACACCAACAGAGGAUUGAGCAUCA
# B13: chr12:39763582:39763583:-_ENSG00000139116_ENST00000544797|hu_mus|hu_hu_hu_mus_False|78_88 (ssRNA)
# RNA: GGGAGUUCUACAGUCCGACGAUCCUCUAGGAACUGGGCAUUCACUUUAAAAUCUGGAGCAGGAAGCCCGUUUUUAAUCGCUGAGGUCUUUUUCUCAUCAAUACUCUUGAACAGGUGUCUAACAGCACGAGAGAUGAUGCCCUGCAACAGAGGAUUGAGCAUCA
# B14: chr1:39494447:39494448:+_ENSG00000168653_ENST00000372967|hu_mus|hu_hu_hu_mus_False|58_108 (ssRNA)
# RNA: GGGAGUUCUACAGUCCGACGAUCGCAUCGACCAGCCUUCUUAUAGGGCUGUUCUGCGCUUAGGAACAUAAAGUGCCGAUCUAUGUUGAUGCCCAGCUUUUUCUGUAUGUCAAGGAAAGGCAUGGCUCUGCAGUGCCCUUGUCACAACAGAGGAUUGAGCAUCA
# B15: 121491449_121500598_1676_CDS_ENSG00000173226_ENST00000310864|human|control|control (ssRNA)
# RNA: GGGAGUUCUACAGUCCGACGAUCUCUGUGCUGCUGGGCUCGCUCUUCUAGGGCCCUGCCCAUAAAGUAGUGUUGCAGUCGUUCUUGAGCUUGGGCAUGGAGCUCCCUACUGACCACAUCUGACAUUGGAGAGCCCAAAUGUCUCAACAGAGGAUUGAGCAUCA
# B16: chr12:45383693:45383694:+_ENSMUSG00000036257_ENSMUST00000043082|mus_mus|FALSE|FALSE (ssRNA)
# RNA: GGGAGUUCUACAGUCCGACGAUCACACAAAAUGCAAUUGUUUGCUUCUCUGUUUCCCACAAAGACUUCUUGCAUUAUUAAGGAAGUAAAUAUAUAUAUCUAGAGUCAAAUUAAUAGACAUAACUUAAAAAUCAUUUAUUUUCUCAACAGAGGAUUGAGCAUCA
# B17: chr1:109605286:109605287:-_ENSG00000197780_ENST00000461096|hu_mus|hu_hu_hu_mus_True|68_98 (ssRNA)
# RNA: GGGAGUUCUACAGUCCGACGAUCAAGUUUCAGAGUAUUCAGUGAUCACCUCUUUAAAUGCAAUUAUCCUUACUUUAAGCUAAGCAGAAUAAUAAUUUAAUACCGUAAGUGAACUACACACAAAGCCUGAACCGCGAAAAUGGUCAACAGAGGAUUGAGCAUCA
# B18: 2649564_2649684_3676_3pUTR_ENSG00000140992_ENST00000342085|human|control|control (ssRNA)
# RNA: GGGAGUUCUACAGUCCGACGAUCAGGGCUAAGAGAGACUCCCCAACACAGCCAAGCCUUUCCAAAAGCCAGGAGGAGGAGAGAGGACUCCGACUCCGGCCACAGGCCCAGGGCAACGUGCUGGGCCCCGGAGCGUCCUGCUCCCAACAGAGGAUUGAGCAUCA
# B19: chr1:163117276:163117277:-_ENSG00000143248_ENST00000313961|hu_mus|FALSE|FALSE (ssRNA)
# RNA: GGGAGUUCUACAGUCCGACGAUCGUCAAAGCUGCGAGGAGACGGUUCCACCAGGUUCUUCAUGGUGAUGUCUUUAGUGAAGUGGUCAAUGUUCACCUCUUUAGGGGCCUCUGUCUGGAUGAAUUCUUCAUAAAUUUGCUUUGCCAACAGAGGAUUGAGCAUCA
# B20: 118502085_118502638_2127_CDS_ENSG00000019144_ENST00000356063|human|control|control (ssRNA)
# RNA: GGGAGUUCUACAGUCCGACGAUCAUCUUCGUGCUCCUGCUGGGUGCUCUCAGUGCUGCUGCACUCCUCCUUGAGAUUUUCCUCAUCUGAGCGCUCCAUACUCUCCCAUAGGCGUUGGGUGGCAACGCCAGGCUCCUCGCUGCUCAACAGAGGAUUGAGCAUCA
# B21: 112022719_112022839_2602_3pUTR_ENSG00000126016_ENST00000371959|human|control|control (ssRNA)
# RNA: GGGAGUUCUACAGUCCGACGAUCCAACUGGAGCAGGAACAGAGAUGGGAGCAACAGCUGCAGUUUUGUUCGAUUCCGUCCCACGUUCAGUUUGGGUACUGCAGUCUCGGCUGCCUGUCUUGGAGUGAGCCGAGAGCAGGGGAGCAACAGAGGAUUGAGCAUCA
# B22: 125866897_125867017_1995_CDS_ENSMUSG00000008348_ENSMUST00000136312|mouse|control|control (ssRNA)
# RNA: GGGAGUUCUACAGUCCGACGAUCUGCAAAGAUCAGCCUCUGCUGGUCAGGGGGGAUGCCCUCCUUGUCCUGGAUCUUUGCCUUGACAUUCUCUAUGGUGUCACUGGGCUCGACCUCCAGGGUGAUGGUCUUGCCUGUCAGGGUCAACAGAGGAUUGAGCAUCA
# Biological target: T1, UNK ZnF1-3
# Experiment: nsRBNS (natural sequence RNA bind-n-seq); RBNS binding buffer (assumed for nsRBNS): 25 mM Tris pH 7.5, 150 mM KCl, 3 mM MgCl2, 0.01% Triton X-100, 500 ug/ml BSA, 20 U/ml SUPERase-In, 4 C; UNK is unkempt and MSI1 is Musashi-1; names of the RNAs are library labels; protein concentration not given here; high values mean tight binding
row,Binder,binding signal
1,B1,1.73 enrichment R
2,B2,0.725 enrichment R
3,B3,0.82 enrichment R
4,B4,0.834 enrichment R
5,B5,0.975 enrichment R
6,B6,0.52 enrichment R
7,B7,2.63 enrichment R
8,B8,0.816 enrichment R
9,B9,0.966 enrichment R
10,B10,1.2 enrichment R
11,B11,0.472 enrichment R
12,B12,0.692 enrichment R
13,B13,1.24 enrichment R
14,B14,0.858 enrichment R
15,B15,0.46 enrichment R
16,B16,2.23 enrichment R
17,B17,0.976 enrichment R
18,B18,1.31 enrichment R
19,B19,1.15 enrichment R
20,B20,0.593 enrichment R
21,B21,1.31 enrichment R
22,B22,0.337 enrichment R
